From patent US10618918B2, “Substituted boronic acids as antimicrobials” (priority 2015, dated 2020)
Read-outs that look alike come from different tables or passages of the source. The name of at least one read-out is uncertain.

Experiments:
ec308 SHV-5 = test: Tigemonam potentiation (MPC@4), strain ec308 SHV-5; format: cell-based; conditions: minimum BLI concentration inhibiting growth with tigemonam 4 μg/mL; tested up to 40 μg/mL
ec302 TEM-10 = test: Tigemonam potentiation (MPC@4), strain ec302 TEM-10; format: cell-based; conditions: minimum BLI concentration inhibiting growth with tigemonam 4 μg/mL; tested up to 40 μg/mL
EC1010 CMY-6 = test: Tigemonam potentiation (MPC@4), strain EC1010 CMY-6; format: cell-based; conditions: minimum BLI concentration inhibiting growth with tigemonam 4 μg/mL; tested up to 40 μg/mL
KP1010 SHV-12 = test: Tigemonam potentiation (MPC@4), strain KP1010 SHV-12; conditions: minimum BLI concentration inhibiting growth with tigemonam 4 μg/mL; tested up to 40 μg/mL
KP1005 CTX-M-14 = test: Aztreonam potentiation (MPC@4), strain KP1005 CTX-M-14
KP1009 CTX-M-15 = test: Tigemonam potentiation (MPC@4), strain KP1009 CTX-M-15
[1] = minimum BLI concentration inhibiting growth with aztreonam 4 μg/mL, tested up to 40 μg/mL
[2] = minimum BLI concentration inhibiting growth with tigemonam 4 μg/mL, tested up to 40 μg/mL

Structure (SMILES): [2H]C1([2H])Cc2ccc(OC)c(C(=O)[O-])c2O[B-]1(O)O.[Na+].[Na+] [Compound 60, Disodium; 3,3-dideuterio-4,4-dihydroxy-8-methoxy-5-oxa-4-boranuidabicyclo[4.4.0]deca-1(10),6,8-triene-7-carboxylate]
- TIG MPC4 SHV-5 ec308 (ec308 SHV-5): X (X = MPC@4 ≤ 5 μg/mL)
- TIG MPC4 TEM-10 ec302 (ec302 TEM-10): X (X = MPC@4 ≤ 5 μg/mL)
- TIG MPC4 CMY-6 EC1010 (EC1010 CMY-6): X (X = MPC@4 ≤ 5 μg/mL)
- TIG MPC4 SHV-12 KP1010 (KP1010 SHV-12): X (X = MPC@4 ≤ 5 μg/mL)
- AZT MPC4 CTX-M-14 KP1005 (KP1005 CTX-M-14; [1]): X (X = MPC@4 ≤ 5 μg/mL)
- TIG MPC4 CTX-M-15 KP1009 (KP1009 CTX-M-15; [2]): X (X = MPC@4 ≤ 5 μg/mL)

Structure (SMILES): O=C([O-])c1c(OCCN2CCOCC2)ccc2c1O[B-](O)(O)CC2.[Na+].[Na+] [Compound 27, Disodium; 4,4-dihydroxy-8-(2-morpholinoethoxy)-5-oxa-4-boranuidabicyclo[4.4.0]deca-1(6),7,9-triene-7-carboxylate]
- TIG MPC4 SHV-5 ec308 (ec308 SHV-5): Z (Z = MPC@4 > 20 μg/mL)
- TIG MPC4 TEM-10 ec302 (ec302 TEM-10): Z (Z = MPC@4 > 20 μg/mL)
- TIG MPC4 CMY-6 EC1010 (EC1010 CMY-6): X (X = MPC@4 ≤ 5 μg/mL)
- TIG MPC4 SHV-12 KP1010 (KP1010 SHV-12): Y (Y = 5 μg/mL < MPC@4 ≤ 20 μg/mL)
- AZT MPC4 CTX-M-14 KP1005 (KP1005 CTX-M-14; [1]): Z (Z = MPC@4 > 20 μg/mL)
- TIG MPC4 CTX-M-15 KP1009 (KP1009 CTX-M-15; [2]): Z (Z = MPC@4 > 20 μg/mL)

Structure (SMILES): COc1ccc2c(c1C(=O)[O-])O[B-](O)(O)CC2.[Na+].[Na+] [Compound 7, DISODIUM; 4,4-DIHYDROXY-8-METHOXY-5-OXA-4-BORANUIDABICYCLO[4.4.0]DECA-1(6),7,9-TRIENE-7-CARBOXYLATE]
- TIG MPC4 SHV-5 ec308 (ec308 SHV-5): X (X = MPC@4 ≤ 5 μg/mL)
- TIG MPC4 TEM-10 ec302 (ec302 TEM-10): Y (Y = 5 μg/mL < MPC@4 ≤ 20 μg/mL)
- TIG MPC4 CMY-6 EC1010 (EC1010 CMY-6): X (X = MPC@4 ≤ 5 μg/mL)
- TIG MPC4 SHV-12 KP1010 (KP1010 SHV-12): X (X = MPC@4 ≤ 5 μg/mL)
- AZT MPC4 CTX-M-14 KP1005 (KP1005 CTX-M-14): X (key: X = MPC@4 ≤ 5 μg/mL; Y = 5 μg/mL < MPC@4 ≤ 20 μg/mL; Z = MPC@4 > 20 μg/mL)
- TIG MPC4 CTX-M-15 KP1009 (KP1009 CTX-M-15): X (key: X = MPC@4 ≤ 5 μg/mL; Y = 5 μg/mL < MPC@4 ≤ 20 μg/mL; Z = MPC@4 > 20 μg/mL)

Structure (SMILES): O=C(O)c1c(CNc2nncs2)ccc2c1OB(O)CC2 [Compound 64, 2-Hydroxy-7-[(1,3,4-thiadiazol-2-ylamino)methyl]-3,4-dihydro-1,2-benzoxaborinine-8-carboxylic acid]
- TIG MPC4 SHV-5 ec308 (ec308 SHV-5): Y (Y = 5 μg/mL < MPC@4 ≤ 20 μg/mL)
- TIG MPC4 TEM-10 ec302 (ec302 TEM-10): X (X = MPC@4 ≤ 5 μg/mL)
- TIG MPC4 CMY-6 EC1010 (EC1010 CMY-6): X (X = MPC@4 ≤ 5 μg/mL)
- TIG MPC4 SHV-12 KP1010 (KP1010 SHV-12): X (X = MPC@4 ≤ 5 μg/mL)
- AZT MPC4 CTX-M-14 KP1005 (KP1005 CTX-M-14; [1]): Y (Y = 5 μg/mL < MPC@4 ≤ 20 μg/mL)
- TIG MPC4 CTX-M-15 KP1009 (KP1009 CTX-M-15; [2]): Y (Y = 5 μg/mL < MPC@4 ≤ 20 μg/mL)

Structure (SMILES): Nc1nnc(C(=O)NC2CB(O)Oc3c(C(=O)O)cccc32)s1 (stereo not drawn) [Compound 2, 4-(5-AMINO-1,3,4-THIADIAZOLE-2-CARBOXAMIDO)-2-HYDROXY-3,4-DIHYDRO-2H-BENZO[E][1,2]OXABORININE-8-CARBOXYLIC ACID]
- TIG MPC4 SHV-5 ec308 (ec308 SHV-5): X (X = MPC@4 ≤ 5 μg/mL)
- TIG MPC4 TEM-10 ec302 (ec302 TEM-10): X (X = MPC@4 ≤ 5 μg/mL)
- TIG MPC4 CMY-6 EC1010 (EC1010 CMY-6): X (X = MPC@4 ≤ 5 μg/mL)
- TIG MPC4 SHV-12 KP1010 (KP1010 SHV-12): X (X = MPC@4 ≤ 5 μg/mL)
- AZT MPC4 CTX-M-14 KP1005 (KP1005 CTX-M-14; [1]): X (X = MPC@4 ≤ 5 μg/mL)
- TIG MPC4 CTX-M-15 KP1009 (KP1009 CTX-M-15; [2]): X (X = MPC@4 ≤ 5 μg/mL)

Structure (SMILES): O=C([O-])c1c(F)ccc2c1O[B-](O)(O)CC2.[Na+].[Na+] [Compound 8, DISODIUM; 8-FLUORO-4,4-DIHYDROXY-5-OXA-4-BORANUIDABICYCLO[4.4.0]DECA-1(6),7,9-TRIENE-7-CARBOXYLATE]
- TIG MPC4 SHV-5 ec308 (ec308 SHV-5): X (X = MPC@4 ≤ 5 μg/mL)
- TIG MPC4 TEM-10 ec302 (ec302 TEM-10): X (X = MPC@4 ≤ 5 μg/mL)
- TIG MPC4 CMY-6 EC1010 (EC1010 CMY-6): X (X = MPC@4 ≤ 5 μg/mL)
- TIG MPC4 SHV-12 KP1010 (KP1010 SHV-12): X (X = MPC@4 ≤ 5 μg/mL)
- AZT MPC4 CTX-M-14 KP1005 (KP1005 CTX-M-14): X (key: X = MPC@4 ≤ 5 μg/mL; Y = 5 μg/mL < MPC@4 ≤ 20 μg/mL; Z = MPC@4 > 20 μg/mL)
- TIG MPC4 CTX-M-15 KP1009 (KP1009 CTX-M-15): X (key: X = MPC@4 ≤ 5 μg/mL; Y = 5 μg/mL < MPC@4 ≤ 20 μg/mL; Z = MPC@4 > 20 μg/mL)

Structure (SMILES): NCCn1cc(COc2ccc3c(c2C(=O)O)O[B-](O)(O)CC3)nn1 [Compound 23, Disodium; 8-[[1-(2-aminoethyl)triazol-4-yl]methoxy]-4,4-dihydroxy-5-oxa-4-boranuidabicyclo[4.4.0]deca-1(6),7,9-triene-7-carboxylate]
- TIG MPC4 SHV-5 ec308 (ec308 SHV-5): Y (Y = 5 μg/mL < MPC@4 ≤ 20 μg/mL)
- TIG MPC4 TEM-10 ec302 (ec302 TEM-10): Y (Y = 5 μg/mL < MPC@4 ≤ 20 μg/mL)
- TIG MPC4 CMY-6 EC1010 (EC1010 CMY-6): X (X = MPC@4 ≤ 5 μg/mL)
- TIG MPC4 SHV-12 KP1010 (KP1010 SHV-12): X (X = MPC@4 ≤ 5 μg/mL)
- AZT MPC4 CTX-M-14 KP1005 (KP1005 CTX-M-14; [1]): Y (Y = 5 μg/mL < MPC@4 ≤ 20 μg/mL)
- TIG MPC4 CTX-M-15 KP1009 (KP1009 CTX-M-15; [2]): Y (Y = 5 μg/mL < MPC@4 ≤ 20 μg/mL)

Structure (SMILES): COc1ccc2c(c1C(=O)[O-])O[B-](O)(O)[C@@H](C)C2.[Na+].[Na+] [Compound 11, Disodium; (3S)-4,4-dihydroxy-8-methoxy-3-methyl-5-oxa-4-boranuidabicyclo[4.4.0]deca-1(6),7,9-triene-7-carboxylate]
- TIG MPC4 SHV-5 ec308 (ec308 SHV-5): Y (Y = 5 μg/mL < MPC@4 ≤ 20 μg/mL)
- TIG MPC4 TEM-10 ec302 (ec302 TEM-10): Z (Z = MPC@4 > 20 μg/mL)
- TIG MPC4 CMY-6 EC1010 (EC1010 CMY-6): X (X = MPC@4 ≤ 5 μg/mL)
- TIG MPC4 SHV-12 KP1010 (KP1010 SHV-12): X (X = MPC@4 ≤ 5 μg/mL)
- AZT MPC4 CTX-M-14 KP1005 (KP1005 CTX-M-14; [1]): Y (Y = 5 μg/mL < MPC@4 ≤ 20 μg/mL)
- TIG MPC4 CTX-M-15 KP1009 (KP1009 CTX-M-15; [2]): Y (Y = 5 μg/mL < MPC@4 ≤ 20 μg/mL)
